B1: wildtype <ANGPT2> antibody (antibody)
heavy: EVQLVQSGGGVVQPGRSLRLSCAASGFTFSSYGMHWVRQAPGKGLEWVSYISSSGSTIYYADSVKGRFTISRDNAKNSLYLQMNSLRAEDTAVYYCARDLLDYDILTGYGYWGQGTLVTVSS[in this place human IgG1 constant region]
light: not shown
notes: Human IgG1/kappa, from WO 2006/045049; also called <ANGPT2> wildtype antibody; original wildtype <ANGPT2> antibody
B2: monospecific, bivalent <ANGPT2> VL-VH/CL-CH1 exchange antibody (antibody)
heavy: not shown
light: EVQLVQSGGGVVQPGRSLRLSCAASGFTFSSYGMHWVRQAPGKGLEWVSYISSSGSTIYYADSVKGRFTISRDNAKNSLYLQMNSLRAEDTAVYYCARDLLDYDILTGYGYWGQGTLVTVSSASTKGPSVFPLAPSSKSTSGGTAALGCLVKDYFPEPVTVSWNSGALTSGVHTFPAVLQSSGLYSLSSVVTVPSSSLGTQTYICNVNHKPSNTKVDKKVEPKSC
notes: HC* = VL-CL-Hinge-CH2-CH3; LC* = VH-CH1; also called <ANGPT> VL-VH/CL-CH1 exchange antibody; VL-VH/CL-CH1 exchange <ANGPT2> antibody Mab536
B3: <ANGPT2> VL-VH(G)/CL-CH1(G) exchange antibody (antibody)
heavy: not shown
light: EVQLVQSGGGVVQPGRSLRLSCAASGFTFSSYGMHWVRQAPGKGLEWVSYISSSGSTIYYADSVKGRFTISRDNAKNSLYLQMNSLRAEDTAVYYCARDLLDYDILTGYGYWGQGTLVTVSSASTKGPSVFPLAPSSKSTSGGTAALGCLVKDYFPEPVTVSWNSGALTSGVHTFPAVLQSSGLYSLSSVVTVPSSSLGTQTYICNVNHKPSNTKVDKKVEPKSGC
notes: Monospecific, bivalent exchange antibody with an additional glycine at the C-terminus of the exchanged Fab domains; also called <ANGPT2> VL-VH(G)/CL-CH1(G) antibody

Legend:
[1] = target: T1, recombinant human ANGPT2 (full-length ANGPT2-His protein, R&D Systems) (human, UniProt O15123 19-496); assay: SPR (Biacore), ANGPT2 binding assay
T1 construct: Bought protein; also called huANGPT2; human Angiopoietin-2; not shown: His tag
T1 sequence (looked up): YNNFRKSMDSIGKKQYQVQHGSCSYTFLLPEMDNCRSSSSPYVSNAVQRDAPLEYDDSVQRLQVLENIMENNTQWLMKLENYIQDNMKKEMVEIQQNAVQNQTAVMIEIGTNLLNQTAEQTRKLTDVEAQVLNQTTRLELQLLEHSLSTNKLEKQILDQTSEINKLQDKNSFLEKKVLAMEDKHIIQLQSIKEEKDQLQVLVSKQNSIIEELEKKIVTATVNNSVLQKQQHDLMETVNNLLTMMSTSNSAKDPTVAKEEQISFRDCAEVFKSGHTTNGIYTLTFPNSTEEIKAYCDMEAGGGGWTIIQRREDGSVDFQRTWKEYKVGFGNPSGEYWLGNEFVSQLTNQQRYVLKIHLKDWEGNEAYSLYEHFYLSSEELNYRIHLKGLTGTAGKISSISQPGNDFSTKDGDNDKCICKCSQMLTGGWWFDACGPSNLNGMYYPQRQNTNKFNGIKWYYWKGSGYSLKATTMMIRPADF

[2] = target: T1, recombinant human ANGPT2 (full-length …); assay: SPR (Biacore), ANGPT2 binding assay; estimated, mean from two determinations
[3] = target: T1, recombinant human ANGPT2 (full-length …); assay: ANGPT2 binding ELISA (plate coated with recombinant human ANGPT2) [left panel]
[4] = target: T1, recombinant human ANGPT2 (full-length …); assay: SPR (Biacore T100), antibody captured, ANGPT2-His in solution; relative estimation
[5] = target: T1, recombinant human ANGPT2 (full-length …); assay: ANGPT2 binding ELISA (plate coated with recombinant human ANGPT2) [right panel]

Binder | koff [1] [s⁻¹] | kon [1] [M⁻¹ s⁻¹] | Kd [2] [nM] | EC50 [3] [µg/mL] | Kd [4] [nM] | EC50 [5] [µg/mL] | Kd [1] [nM]
B1 | 0.0002 | 526000 | ~0.038 | 0.0984 | 0.012 | – | –
B2 | – | – | – | – | 0.013 | 0.083 | –
B3 | 0.00236 | 5.29e+06 | ~0.045 | – | – | – | 0.445
